This is an account of results in PMC4242493.

The other results are listed elsewhere or left out. The list includes weakly bound sequences.

This assay deals with MaxL homodimer (UniProt P61244). Description: universal protein-binding microarray (PBM). The following applies: PBS-based mixture, 10 nM His-tagged protein dimer, 2% milk, 200 ng/uL BSA, 50 ng/uL salmon testes DNA, 0.02% TX-100; detection with Alexa 488 anti-His …; high values mean tight binding; most listed sequences are background and not binding sites; double strand, one strand shown.
UniProt P61244, sequence (P61244 whole entry): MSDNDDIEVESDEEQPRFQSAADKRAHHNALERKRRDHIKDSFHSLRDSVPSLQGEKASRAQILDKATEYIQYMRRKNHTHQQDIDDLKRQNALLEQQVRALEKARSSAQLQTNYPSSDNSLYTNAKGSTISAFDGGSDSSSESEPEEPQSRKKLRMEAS
As for AGGTTATA, the binding signal (normalized occupancy) came out at 0.0794. Under AACAATGA stands 0.0819; under ACGGACGT, 0.0685. Under ACTCCGGA stands 0.0722. Take CGGTGACG: the binding signal (normalized occupancy) amounted to 0.0751. Under AGGTCGGC stands 0.0678; under GACATTAA, 0.0815; under CGGCGCCG, 0.0686. Under CAAAGACG stands 0.068; under ATAGCCGC, 0.0716. Under AACCCCCG stands 0.077; under ATCTTGAC, 0.0784.

Regarding AGAACGTA, the binding signal (normalized occupancy) came to 0.0742. Under AGTGTTCC stands 0.0695. With GCTTTCAC, the binding signal (normalized occupancy) was 0.071. Under CATTTGGA stands 0.0765; under ACAACCTG, 0.0804.

For the sequence AAAGAGCG, the binding signal (normalized occupancy) came to 0.0678. Under GACCGTGA stands 0.0738; under CGCGTGAG, 0.109.

As for ACTTCGTG, the binding signal (normalized occupancy) amounted to 0.0718. With TAGCTTCA, the binding signal (normalized occupancy) amounted to 0.0759. Under TTACAAAA stands 0.0724; under CAACGTCG, 0.0706; under CAGATTTA, 0.0742. Under AGTTGTCG stands 0.0737; under ACACTCGG, 0.0736. Under ATAAGACG stands 0.0798; under CGCGACAG, 0.0727; under CGACTGTA, 0.0699. Take CCAGATTC: the binding signal (normalized occupancy) turned out to be 0.071.

Consider ACACTCGA, for which the binding signal (normalized occupancy) worked out at 0.0734. Under ACGGCCAC stands 0.076; under ACCACGTA, 0.0816; under AAGCACCG, 0.0685.

With CGTTGATC, the binding signal (normalized occupancy) came out at 0.077. Under CAACAGCG stands 0.0696. On to CATACTAA, for which the binding signal (normalized occupancy) stood at 0.0776. Under AAAATCGT stands 0.0814. GCCATGTA: the binding signal (normalized occupancy) was determined as 0.0843. Under AATGCACG stands 0.0974; under ATTCAACA, 0.0822. Under CAGGCTGA stands 0.0746; under GGCCGGAC, 0.0713; under GCTGTGTA, 0.0781. Under ACCTGATG stands 0.0825; under AGTAATTA, 0.0718.

In the case of CATTCTAG, the binding signal (normalized occupancy) worked out at 0.0749. As for AAAGGAGA, the binding signal (normalized occupancy) came out at 0.0761. Consider TAGTGTCA, for which the binding signal (normalized occupancy) was 0.0767. As for ATTAACGG, the binding signal (normalized occupancy) came to 0.0709. Under CACTGCGG stands 0.074. Under ACCACTCC stands 0.0804; under CGGAATCC, 0.0744. Under ATAGAAAG stands 0.0831; under CAGTACAA, 0.0781; under CGTGTGTC, 0.0936.

For GGATAAAC, the binding signal (normalized occupancy) was found to be 0.0768. Under AGCAGATC stands 0.077. Under CGAAATCC stands 0.0763. Under AGGAAGAA stands 0.0726; under ATTAACGC, 0.0763; under AGTATGAC, 0.0866. Turning to GTCGTAAA, the binding signal (normalized occupancy) was 0.0749. Under GTCGCGAA stands 0.0698; under AAAGCGGC, 0.0666; under CCTCCGCA, 0.0736.

Regarding CTCTGGGA, the binding signal (normalized occupancy) came to 0.0701.

As for CGCATACC, the binding signal (normalized occupancy) was 0.0845.

Regarding CCAAGCAC, the binding signal (normalized occupancy) was 0.082. Under CGGGAAGC stands 0.0681; under CCGAAACA, 0.0779.

Take ACCTCGAT: the binding signal (normalized occupancy) turned out to be 0.072.

Turning to AGTGTAAA, the binding signal (normalized occupancy) amounted to 0.0803. Under CTCTGCAA stands 0.0718; under AGCCCATA, 0.0829; under CCTAAGAA, 0.0797. Under ACCATCCC stands 0.084; under GGCGTAAC, 0.0704.

On to ACACGTAC, for which the binding signal (normalized occupancy) was determined as 0.0858. ACCAGTCC: the binding signal (normalized occupancy) turned out to be 0.0702. Under CAGCGGTA stands 0.0751. As for AAGTCGGT, the binding signal (normalized occupancy) was 0.0677. Under CGGAGTGC stands 0.0772. Under ACCCGTGA stands 0.0833. As to CTATAAAG, the binding signal (normalized occupancy) is 0.0781. Under ATCGGTTC stands 0.0697; under ATGTGTCA, 0.101; under ATTATCTC, 0.0839. Under CTCCAACA stands 0.0764; under TGGCCCCA, 0.0779.

Turning to GCCGGGCA, the binding signal (normalized occupancy) came out at 0.0681. On to ACACGACG, for which the binding signal (normalized occupancy) is 0.0873. CCGCTCAG: the binding signal (normalized occupancy) came out at 0.0713.

With GCGAACGA, the binding signal (normalized occupancy) worked out at 0.0714. Under ATTGGTCG stands 0.0709; under AGGTGAGA, 0.0787; under GACTCTTA, 0.0766. Take CATAACGC: the binding signal (normalized occupancy) was found to be 0.0802. Under CGATATCC stands 0.0859; under CGCCTTGC, 0.0725; under GGTACTTA, 0.0774. Under CCCAAACG stands 0.073; under CACCGTTC, 0.0774; under ACGATTTC, 0.0741. Under GTCGTGGA stands 0.0856; under AATTTACT, 0.0773; under CAATTCCG, 0.0702. For CCAGTGTC, the binding signal (normalized occupancy) is 0.0756.

Take ACTGGCGA: the binding signal (normalized occupancy) came to 0.0719.

For the sequence CGGTCTCA, the binding signal (normalized occupancy) was 0.0736. Under ACCACTAG stands 0.0806; under CAGCTCCA, 0.0792. As to CGCAGACC, the binding signal (normalized occupancy) amounted to 0.069. Under CCTTGAGC stands 0.0693. Take AAGGCGGT: the binding signal (normalized occupancy) worked out at 0.0724.

With AGTCGTTC, the binding signal (normalized occupancy) was 0.0702.

As to GCACTGAC, the binding signal (normalized occupancy) worked out at 0.0739. Under GTTACTTA stands 0.0751; under ACGTACAT, 0.0839. Under ATAAATGG stands 0.0761; under ATTCTCGC, 0.0783. Take CGAGAGTC: the binding signal (normalized occupancy) was 0.0693. As for AAGGAATC, the binding signal (normalized occupancy) worked out at 0.0703.

AGGTGAGC: the binding signal (normalized occupancy) is 0.0783. Under AGCCGTAA stands 0.0698. Under AATCTGCT stands 0.072; under CCCCTGTA, 0.0798; under ACTTGGCA, 0.0766. Under TCATAGGA stands 0.0813; under ATTTCATA, 0.0793.

In the case of ACGGCCAG, the binding signal (normalized occupancy) came out at 0.0716. Under AAAGCCAT stands 0.0766. For the sequence CCAGGGGG, the binding signal (normalized occupancy) was determined as 0.0726. Under GATCTGCA stands 0.0738. Under ACGATTGC stands 0.0766; under CGGAAGTA, 0.0707.

In the case of CAGATCCG, the binding signal (normalized occupancy) was 0.0687. Under AAAGATCC stands 0.0755. Under CGTTGGGC stands 0.0777; under ACAACGAA, 0.0723; under AAGTCACG, 0.0946. Regarding GCTCTACA, the binding signal (normalized occupancy) was found to be 0.0739. Under TTCACAAA stands 0.072. Under CTCTGTAC stands 0.0743; under CCTCAACA, 0.0712.

Turning to CTTATCGA, the binding signal (normalized occupancy) came to 0.074.

For the sequence AAGCATAG, the binding signal (normalized occupancy) is 0.0734. On to CTGGAACC, for which the binding signal (normalized occupancy) came to 0.0728. Under ACTACCCG stands 0.0715; under CCGGCGCG, 0.07. With GGCCTGAA, the binding signal (normalized occupancy) is 0.0704.

With GTGCGTCA, the binding signal (normalized occupancy) was 0.0849. For CGGCAGAA, the binding signal (normalized occupancy) was 0.0694. With AACTATAA, the binding signal (normalized occupancy) worked out at 0.0826.

In the case of ATGGTTAC, the binding signal (normalized occupancy) turned out to be 0.0806.

As to ACGCATAC, the binding signal (normalized occupancy) amounted to 0.0842. AATCCCGA: the binding signal (normalized occupancy) was found to be 0.0726. Under AAATGCGC stands 0.0749. Under GCCAAGCA stands 0.0719; under ATTTCCTA, 0.0796. Under TAGTTCCA stands 0.0748. Regarding AAAGAGGT, the binding signal (normalized occupancy) came to 0.0678. Regarding AAAGCATA, the binding signal (normalized occupancy) was 0.0783. Under GCGTTTAC stands 0.0751. Under ATCATCAC stands 0.0854. Under AGCACGAG stands 0.0964; under CTAAGATC, 0.0789; under CCCGCCGC, 0.0702.

Regarding CCGTGCCG, the binding signal (normalized occupancy) was found to be 0.0753. Under AACAGAAA stands 0.0736; under ACATGCCG, 0.103.
